Source: patent publication US20160089386A1, “TREATING AND PREVENTING DISEASE WITH TMA AND TMAO LOWERING AGENTS” (The Cleveland Clinic Foundation, priority 2014, published 2016)

Columns and labels:
[1] = for renal parenchymal fibrosis: dietary exposure of either choline or TMAO in mice; for serum cystatin C levels: feeding extended to 16 weeks, compared to chow-fed mice; for kidney injury marker-1 (KIM-1) / phosphorylation of Smad3: mouse kidneys; for kidney injury marker-1 (KIM-1): 6 weeks diet (choline 1.0% or TMAO 0.12%), vs chow; for phosphorylation of Smad3: brief exposure (6 weeks) to high choline or TMAO supplemented diet
[2] = Plasma TMAO in mice on chow or choline diet with or without ASA in drinking water; assay type: in vivo; conditions: ASA 4 mg/Kg BW in drinking water, 2 weeks

SMILES: C[N+](C)(C)[O-] [TMAO, trimethylamine N-oxide]
- renal parenchymal fibrosis [1]: development of renal parenchymal fibrosis
- serum cystatin C levels [1]: increased
- kidney injury marker-1 (KIM-1) [1]: increased
- phosphorylation of Smad3 [1]: enhanced phosphorylation

SMILES: CC(=O)Oc1ccccc1C(=O)O [ASA, acetylsalicylic acid]
- TMAO monitored in plasma ([2]; choline diet (0.5 gm %)): 19.7 µM
- TMAO monitored in plasma ([2]; chow diet): 4.5 µM

SMILES: C[N+](C)(C)CCO [choline]
- renal parenchymal fibrosis [1]: development of renal parenchymal fibrosis
- serum cystatin C levels [1]: increased
- kidney injury marker-1 (KIM-1) [1]: increased
- phosphorylation of Smad3 [1]: enhanced phosphorylation
